Data: PubChem BioAssay AID1671193 (National Center for Advancing Translational Sciences (NCATS), 2021)
In all, about 150,000 compounds went through this assay and about 180 (0.12%) were called active. This list was built around the results that the source calls inconclusive (neither active nor inactive); the mix of calls is not that of the screen. Calls come from the whole dose curve; as a rule, active = well fitted cell-killing curve with a large enough effect; inconclusive = small, poorly fitted or top-dose-only effect, or effect the other way; inactive = flat fitted curve, though single readings scatter. Potencies of inconclusive entries are doubtful fits and often do not repeat.

Assay: GF-AFC viability counterscreen for inhibitors of alpha-synuclein gene (SNCA) expression; note: nearly all actives have a fitted effect of over 30% in size;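 for activity change, negative = cytotoxicity: 0% = DMSO-treated cells and -100% = medium-only wells without cells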
Details: HEK-293-SNCA-luc viability, GF-AFC fluorescence, 24 h; activity change, negative = cytotoxicity: at 57.1 µM (top of the series) unless noted
In short: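 HEK-293-SNCA-luc cells (1500/well) plated 24 h, then exposed 24 h to a dilution series; GF-AFC added 30 min at 37C, fluorescence 405/540 nm; normalised to medium-only and DMSO wells, Hill fit.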
Potency is the fitted concentration of half-maximal effect; tags give direction and shape of the fitted curve.

Which Potency does the source give for `COCCCNC(=O)c1ccc2nnc(-c3ccoc3)n2c1` here?
Its Potency is “inactive”.

With `CC(CCc1ccccc1)NC(=O)Cn1ccn2nc3c(c2c1=O)CCCC3` (stereo not drawn) as the compound, how does the Potency read?
Its Potency is “inactive”.

For `CN1C(=O)C2(CCN(C(=O)CCC3CCCC3)CC2)c2ccccc21`, which Potency is on record?
The Potency was inconclusive: 3.16 µM [cytotoxic, full curve].

For `Cc1ccc(CN2CCN(CC(=O)Nc3ccc(C)c(C)c3)S2(=O)=O)cc1`, which Potency is on record?
The Potency was inconclusive: 11.2 µM [rising, partial curve, poor fit].

Which Potency does the source give for `O=C(Cn1c(=O)n(-c2ccccc2Cl)c(=O)c2sc3ccccc3c21)NC1CCCCC1` here?
The Potency was inconclusive: 0.158 µM [cytotoxic, full curve, poor fit].

Which Potency does the source give for `O=C(c1ccc(Cl)cn1)N1CCCCC12Cc1ccccc1NC2=O` (stereo not drawn) here?
Its Potency is “inactive”.

With `O=C(O)CSc1cc(NS(=O)(=O)c2ccc(Br)cc2)c2ccccc2c1O` as the compound, how does the Potency read?
The Potency was inconclusive: 33.6 µM [cytotoxic, single point].

For `O=C(Nc1c(-c2cccs2)nc2ccccn12)c1ccc(Cl)cc1`, which Potency is on record?
The Potency was inconclusive: 0.67 µM [cytotoxic, partial curve, poor fit].

For `CC(=O)NCC(=O)N1Cc2ccccc2CC2(CCCCN2CC2CCNC2)C1` (stereo not drawn), which Potency is on record?
Its Potency is “inactive”.

For `CC(C)NC(=O)N1CNC(=O)C12CCN(C(=O)CN)CC2`, which Potency is on record?
Its Potency is “inactive”.

Which Potency does the source give for `CC(C)CNC(=O)c1nc2sccn2c1-c1cccc(C#N)c1` here?
The Potency was inconclusive: 39.8 µM [cytotoxic, single point].

For `O=C([C@H]1C[C@H](Oc2cccnc2)CN1C(=O)c1ccc2ccccc2n1)N1CCOCC1`, which Potency is on record?
The Potency was inconclusive: 22.4 µM [cytotoxic, partial curve, poor fit].

For `COc1ccc(OC)c(-c2ccc(NC(=O)c3ccncc3F)cc2)c1`, which Potency is on record?
Its Potency is inconclusive: 2.67 µM [cytotoxic, partial curve, poor fit].

With `COc1cc(OC)cc(C(=O)N2CCC3(CC2)N=C(c2ccc(Cl)cc2)NO3)c1` as the compound, how does the Potency read?
Its Potency is “inactive”.

Which Potency does the source give for `O=C(Nc1cccc2cccnc12)c1ccc(N2C(=O)[C@@H]3C4C=CC(C4)[C@@H]3C2=O)cc1` here?
The Potency was inconclusive: 37.7 µM [cytotoxic, partial curve, poor fit].

With `COc1ccccc1CC(=O)NC1CCN(c2cc(C(F)(F)F)nc(C)n2)CC1` as the compound, how does the Potency read?
The Potency was “inactive”.

Which Potency does the source give for `Cn1c(=O)n(C)c2cc(N3CCOCC3)c(NC(=O)c3ccccc3Br)cc21` here?
Its Potency is inconclusive: 4.47 µM [rising, full curve, poor fit].

With `CN(C)c1ncc2nc(-c3ccc(Cl)cc3)c(=O)n(C3CC3)c2n1` as the compound, how does the Potency read?
Its Potency is inconclusive: 2.82 µM [rising, full curve].

For `Cn1cccc1C(=O)N1CCC2(CC1)CN(c1ccccn1)C2`, which Potency is on record?
Its Potency is inconclusive: 3.55 µM [rising, full curve].

Which Potency does the source give for `CCOc1ccc(C2Nc3c(C)cccc3-c3cc(C)nn32)cc1` (stereo not drawn) here?
The Potency was inconclusive: 2.24 µM [rising, full curve, poor fit].

Which Potency does the source give for `CCOc1ccccc1C(=O)Nc1c(C(=O)Nc2ccc(F)cc2)oc2ccccc12` here?
Its Potency is inconclusive: 0.891 µM [cytotoxic, full curve, poor fit].

With `CCCCCCCCCCCCCCCCCCOC[C@H](COP(=O)([O-])OCC[N+](C)(C)C)OC` as the compound, how does the Potency read?
The Potency was inconclusive: 7.08 µM [cytotoxic, single point].

For `COC(=O)C1=C(C)NC(C)=C(C(=O)OC)C1c1ccccc1[N+](=O)[O-]`, which Potency is on record?
The Potency was inconclusive: 35.5 µM [cytotoxic, single point].

Which Potency does the source give for `CC(C)NC[C@H](O)COc1ccc(CCOCC2CC2)cc1` here?
Its Potency is inconclusive: 8.44 µM [cytotoxic, single point].

Which Potency does the source give for `Cc1nc2cccnc2n1CC1CCCN(S(=O)(=O)Cc2ccc(Cl)cc2)C1` (stereo not drawn) here?
The Potency was “inactive”.

With `Cc1ccccc1CN1C(=O)c2ccccc2Sc2ccc(C(=O)N3CCCC3)cc21` as the compound, how does the Potency read?
Its Potency is inconclusive: 31.6 µM [cytotoxic, single point].

With `Cc1c(CNC(=O)c2ccc3nc(-c4ccc(F)cc4)cn3c2)cnn1C` as the compound, how does the Potency read?
Its Potency is “inactive”.

Which Potency does the source give for `Cc1ccc(Nc2c(-c3ccc(O)cc3)nc3cccc(C)n23)cc1` here?
The Potency was inconclusive: 31.6 µM [cytotoxic, partial curve, poor fit].

Which Potency does the source give for `Oc1ccccc1-c1cnc2n[nH]c(-c3ccc4c(c3)OCO4)c2n1` here?
Its Potency is “inactive”.

Which Potency does the source give for `Cc1cc(C)cc(NC(=O)C2CCCN(C(=O)c3cnn(-c4ccccc4)c3-n3cccc3)C2)c1` (stereo not drawn) here?
Its Potency is inconclusive: 25.1 µM [cytotoxic, single point].

For `O=Cc1cccc(-c2ccccc2F)c1`, which Potency is on record?
Its Potency is “inactive”.

With `COc1ccc(Nc2cnc3ccc(-c4ccc(OC)c(OC)c4)nn23)cn1` as the compound, how does the Potency read?
The Potency was “inactive”.

With `CCC(=O)Nc1ccc(CC)cc1-c1nc2ccccc2n(Cc2ccccc2)c1=O` as the compound, how does the Potency read?
The Potency was inconclusive: 28.2 µM [cytotoxic, partial curve].

For `Cc1c(C(F)(F)F)nc(-c2ccc(CN3CCNCC3)cc2)[nH]c1=O`, which Potency is on record?
The Potency was “inactive”.

With `O=C(c1ccncc1)N1CCC(Cc2noc(-c3ccccc3)n2)C1` (stereo not drawn) as the compound, how does the Potency read?
Its Potency is inconclusive: 39.8 µM [cytotoxic, single point].

For `Cc1cccc(C)c1NC(=O)N1CCC(n2cc(-c3cccnc3)nn2)CC1`, which Potency is on record?
Its Potency is inconclusive: 14.1 µM [rising, partial curve, poor fit].

Which Potency does the source give for `CC(=O)c1c(C)cc(O)cc1O[C@@H]1O[C@H](CO)[C@@H](O)[C@H](O)[C@H]1O` here?
Its Potency is “inactive”.

For `COc1cc2nc(Nc3cccc(C)c3)nc(N)c2cc1OC`, which Potency is on record?
Its Potency is inconclusive: 39.8 µM [cytotoxic, single point].

With `O=C(NCCc1ccc(Cl)cc1)c1ccc2c(c1)N(Cc1ccc(F)cc1)C(=O)CS2` as the compound, how does the Potency read?
The Potency was inconclusive: 17.8 µM [cytotoxic, partial curve, poor fit].

With `COc1ccc(-n2cc(CN3CCCC(O)C3)c(-c3cccc(F)c3)n2)cc1` (stereo not drawn) as the compound, how does the Potency read?
The Potency was inconclusive: 11.2 µM [cytotoxic, partial curve, poor fit].

With `CCCC(=O)N1CCN(C2CCN(CCC(C)C)C2=O)CC1` (stereo not drawn) as the compound, how does the Potency read?
Its Potency is “inactive”.

With `CCOC(=O)C[C@@H]1C[C@@H](C(C)C)[C@H](CNS(=O)(=O)c2ccc(OC)cc2)C=C1C` as the compound, how does the Potency read?
Its Potency is “inactive”.

With `CC(C)c1nc2c(c(-c3ccc(O)cc3)n1)CN(Cc1cccc3ccccc13)CC2` as the compound, how does the Potency read?
The Potency was “inactive”.

For `Cc1ccc2c(n1)N(C)[C@H](CO)CCN(Cc1ccc(F)c(F)c1)C2`, which Potency is on record?
Its Potency is “inactive”.

For `C/C=C(\C)C(=O)O[C@@H]1CC2[C@@H](CC=C3C[C@@H](O[C@H]4C[C@H](OC)[C@H](O[C@H]5C[C@H](OC)[C@H](O[C@@H]6O[C@H](C)[C@@H](O[C@H]7C[C@H](OC)[C@H](O[C@@H]8O[C@H](CO)[C@@H](O)[C@H](O)[C@H]8O)[C@@H](C)O7)[C@H](OC)[C@H]6O)[C@@H](C)O5)[C@@H](C)O4)CC[C@@]32C)[C@@]2(O)CC[C@H](C(C)=O)[C@@]12C` (stereo partly drawn), which Potency is on record?
Its Potency is inconclusive: 6.35 µM [cytotoxic, partial curve, poor fit].

For `CN1CCC(N[C@H]2C[C@@H](Cc3cc(-c4ccc(F)cc4)on3)C2(C)C)CC1`, which Potency is on record?
The Potency was inconclusive: 31.6 µM [cytotoxic, single point].

With `COCCOc1ccc(-c2noc([C@@H]3CCCN3C3CCCCC3)n2)cn1` as the compound, how does the Potency read?
The Potency was “inactive”.

Which Potency does the source give for `O=S(=O)(Cc1ccccc1)N1CCC(F)(c2nc(-c3ccncc3)no2)CC1` here?
The Potency was inconclusive: 39.8 µM [cytotoxic, single point].

For `COc1ccc(NC(=O)C2(C)CN(C)Cc3ccc(NCc4ccccc4)nc32)cn1` (stereo not drawn), which Potency is on record?
Its Potency is inconclusive: 28.2 µM [cytotoxic, partial curve].

Which Potency does the source give for `Cc1cc(=O)n(CC(=O)Nc2cccc(Cl)c2)c(N2CCc3ccccc3C2)n1` here?
The Potency was inconclusive: 35.5 µM [cytotoxic, single point].

For `COc1cccc(CC(=O)NC2CCN(c3cc(-c4ccc(Cl)cc4)[nH]n3)CC2)c1`, which Potency is on record?
Its Potency is “inactive”.

Which Potency does the source give for `N#C/C(=C\c1cccc(F)c1)c1nc(-c2cc3c(ccc4ccccc43)oc2=O)cs1` here?
Its Potency is inconclusive: 28.2 µM [rising, partial curve, poor fit].

Which Potency does the source give for `COc1ccc2nc(C[C@@H]3C[C@@H](C(C)C)[C@H](CN)C=C3C)[nH]c2c1` here?
The Potency was inconclusive: 44.7 µM [cytotoxic, single point].

Which Potency does the source give for `C[C@@H]1CC(=O)NN=C1c1ccc(NN=C(C#N)C#N)cc1` here?
Its Potency is inconclusive: 4.29 µM [cytotoxic, full curve].

With `Cc1c(-c2ccc(Cl)cc2)c(=O)oc2c(CN3CCN(CCO)CC3)c(O)ccc12` as the compound, how does the Potency read?
Its Potency is inconclusive: 22.4 µM [rising, partial curve, poor fit].

For `Cc1nn(-c2ccc(C(F)(F)F)cc2)c(C)c1[C@@H]1C=C[C@@H](NC(=O)NC(C)C)C1`, which Potency is on record?
The Potency was inconclusive: 39.8 µM [cytotoxic, single point].

Which Potency does the source give for `CN1C(=O)[C@@H]2C[C@@H](CN2Cc2nccs2)Oc2ccccc21` here?
Its Potency is “inactive”.

With `C/C=C\NC(=O)C1NC(=O)C(CC(N)=O)NC(=O)C(NC(=O)C(=O)C(C)CC)Cc2ccc(O)c(c2)-c2cccc3c2NC(=O)C3(O)C1O` (stereo not drawn) as the compound, how does the Potency read?
The Potency was inconclusive: 11.2 µM [cytotoxic, single point].

With `CCCc1cc(N2CCN(c3cccc(C)c3C)CC2)n2cnnc2n1` as the compound, how does the Potency read?
Its Potency is inconclusive: 10 µM [cytotoxic, partial curve, poor fit].

For `Cc1ccccc1N1CCN(C(=O)c2ccc3c(c2)N(C)C2CCCCCN2C3=O)CC1` (stereo not drawn), which activity change, negative = cytotoxicity is on record?
Its activity change, negative = cytotoxicity is inactive: -8.9% [at 12.5 µM].

With `C#CCNC(=O)C1CCCN(c2nccc(Nc3ccccc3F)n2)C1` (stereo not drawn) as the compound, how does the activity change, negative = cytotoxicity read?
The activity change, negative = cytotoxicity was inactive: 9.34% [at 12.5 µM].

For `CCCCN(C)C(=O)CC1CCN(c2ccnc(OC)n2)CC1`, which Potency is on record?
The Potency was inconclusive: 6.31 µM [cytotoxic, single point].

Which Potency does the source give for `CCOC(=O)c1ccc(Nc2nc3nonc3nc2Nc2cccc(C)c2C)cc1` here?
The Potency was inconclusive: 1.78 µM [cytotoxic, full curve, poor fit].
